Test results published in PubChem BioAssay (NCATS).
The shares of active, inactive and inconclusive entries below differ from those in the screen. Potencies of inconclusive entries are doubtful fits and often do not repeat. Active and inactive are the calls of the source. Calls come from the whole dose curve; as a rule, active = well fitted cell-killing curve with a large enough effect; inconclusive = small, poorly fitted or top-dose-only effect, or effect the other way; inactive = no such curve, though single readings can be large or run the other way.

Key:
[1] = Viability qHTS for spleen associated tyrosine kinase inhibitor (SYKi) naive MV4-11 cells (AID 1963823); settings: MV4-11 AML viability, CellTiter-Glo luminescence, 72 h; series mostly up to 45 µM; note: nearly all actives have a fitted effect of over 40% in size
Method in brief: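 Compounds were dispensed acoustically onto plates, MV4-11 cells (SYKi-naive) added at 500 per well, and plates incubated 72 hr at 37 C. CellTiter-Glo was added and luminescence measured after 10 min.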

[2] = Viability qHTS for spleen associated tyrosine kinase inhibitor (SYKi) drug resistant MV4-11 cells (AID 1963824); settings: SYKi-resistant MV4-11 viability, CellTiter-Glo, 72 h; series mostly up to 45 µM; note: nearly all actives have a fitted effect of over 35% in size
Method in brief: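 SYK-inhibitor-resistant MV4-11 AML cells were seeded at 500 per well onto compound and cultured 72 hours (37 °C, 5% CO2). CellTiter-Glo was then added, and after 10 min at room temperature, luminescence gave viability.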
Potency is the fitted concentration of half-maximal effect; tags give direction and shape of the fitted curve.

With `COC(=O)/C=C\C(=O)OC` the Potency [1] was “inactive” and the Potency [2] was “inactive”.

With `CCCCc1c(-c2ccc(OC)cc2)[nH]c2nccnc12` the Potency [1] was inconclusive: 16.4 µM [cytotoxic, partial curve, poor fit] and the Potency [2] was inconclusive: 16.4 µM [cytotoxic, partial curve].

In the case of `O=C(Nc1ccccc1Cl)c1cnc2ccc(C3CCNCC3)cn12`, the Potency [1] is reported as inconclusive: 20.6 µM [cytotoxic, partial curve] and the Potency [2] is reported as inconclusive: 14.6 µM [cytotoxic, partial curve].

In the case of `CC(=O)C1CCC(=O)N1Cc1ccccc1` (stereo unspecified), the Potency [1] is reported as “inactive” and the Potency [2] is reported as inconclusive: 2.31 µM [cytotoxic, full curve, poor fit].

For `N#Cc1c2nc3ccccc3nc2n2ccc(NC(=O)c3cccs3)cc12`, the Potency [1] was inconclusive: 6.51 µM [cytotoxic, full curve] and the Potency [2] was inconclusive: 1.46 µM [cytotoxic, partial curve].

For `Cc1ccccc1NC(=O)Nc1ccc(CC(=O)N(C)[C@@H](CC(C)C)C(=O)NCC[C@H](NC(=O)[C@@H]2CCCN2S(=O)(=O)c2cc(Cl)cc(Cl)c2)C(=O)O)cc1`, the Potency [1] was “inactive” and the Potency [2] was “inactive”.

With `COc1c(N2C[C@@H]3CCCN[C@H]3C2)c(F)cc2c(=O)c(C(=O)O)cn(C3CC3)c12` the Potency [1] was inconclusive: 0.0013 µM [rising, full curve] and the Potency [2] was inconclusive: 23.5 µM [cytotoxic, single point].

In the case of `CC(C)(C)CC(=O)OCC(=O)[C@@]1(O)CC[C@H]2[C@@H]3CCC4=CC(=O)C=C[C@]4(C)[C@H]3[C@@H](O)C[C@@]21C`, the Potency [1] is reported as inconclusive: 33.5 µM [cytotoxic, single point] and the Potency [2] is reported as inconclusive: 29.9 µM [cytotoxic, single point].
